The supplement of paper PMC7266297
The list shows a part of the results. Many values rest on one well or one pass, so single values are uncertain.

Key:
KB-3-1 = assay: growth inhibition relative to DMSO control (SRB); cervical cancer cells: KB-3-1 is the parent and KB-V1 overexpresses MDR1; SRB is the sulforhodamine B stain; higher = more growth inhibition; conditions: 1 µM; 72 h
KB-V1 = assay: as above; conditions: 1 µM; 72 h
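Also: Read-out is SRB optical density at 490 nm, with the control being wells given 0.5% DMSO vehicle, and compound added one day after cells were plated.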

| Structure (SMILES) | growth inhibition (KB-3-1) [%] | growth inhibition (KB-V1) [%] |
| --- | --- | --- |
| CCOC(=O)Nc1cc(-c2ccc(C)c(NS(C)(=O)=O)c2)nn2c(C)nnc12 [Bromosporine] | 42 | 32.4 |
| Cn1c(=O)n(-c2ccc(C(C)(C)C#N)cc2)c2c3cc(-c4cnc5ccccc5c4)ccc3ncc21 [BEZ235 (NVP-BEZ235, Dactolisib)] | 94.7 | 93.7 |
| Cc1cc2c(s1)Nc1ccccc1N=C2N1CCN(C)CC1 [Olanzapine] | 28.7 | 15.2 |
| COC(=O)Nc1ccc(-c2nc(N3CCOCC3)c3cnn(C4CCN(C(=O)OC)CC4)c3n2)cc1 | 84.4 | 86.5 |
| CS(=O)(=O)Nc1ccc([N+](=O)[O-])cc1Oc1ccccc1 [Nimesulide] | 21.1 | 21.1 |
| COc1cc2nccc(Oc3ccc(NC(=O)Nc4cc(C)on4)c(Cl)c3)c2cc1OC [Tivozanib (AV-951)] | 43.7 | 28.2 |
| CC1(C)CC(=O)c2c(C(F)(F)F)nn(-c3ccc(C(N)=O)c(N[C@H]4CC[C@H](OC(=O)CN)CC4)c3)c2C1 | < 0 | < 0 |
| CC(=O)Nc1cccc(-n2c(=O)n(C3CC3)c(=O)c3c(Nc4ccc(I)cc4F)n(C)c(=O)c(C)c32)c1 | < 0 | < 0 |
| Cn1cc(C2=C(c3ccc(Cl)cc3Cl)C(=O)NC2=O)c2ccccc21 | 12.2 | 20.8 |
| Cc1cc(Nc2ncc(Cl)c(Nc3ccccc3S(=O)(=O)C(C)C)n2)c(OC(C)C)cc1C1CCNCC1 | 73.2 | 66.8 |
| COC(=O)[C@]12CCC(C)(C)C[C@H]1[C@H]1C(=O)C=C3[C@@]4(C)C=C(C#N)C(=O)C(C)(C)[C@@H]4CC[C@@]3(C)[C@]1(C)CC2 [Bardoxolone Methyl] | 100 | 97.5 |
